In all, about 81,000 sequences were measured (“one-hybrid fitness for binding NBS DNA”: median about -0.1, highest 2% from about 0.36 on). The list shows a part of the results.
B1: Caulobacter ParB omega fusion; a variant is named by its letters at X, in order, B8GW30 (parent)
chain: MESVVVGEPGMSEGRRGLGRGLSALLGEVDAAPAQAPGEQLGGSREAPIEILQRNPDQPRRTFREEDLEDLSNSIREKGVLQPILVRPSPDTAGEYQIVAGERAWRAAQRAGLKTVPIMVRELDDLAVLEIGIIENVQRADLNVLEEALSYKVLMEKFERTQENIAQTIGKSXSHVANXMRLLXLPDEVQSYLVSGELTAXHARAIAAAADPVALAKQIIEGGLSVRETEALARKAPNLSAGKSKGGRPPRVKDTDTQALESDLSSVLGLDVSIDHRGSTGTLTITYATLEQLDDLCNRLTRGI

Variants of: B1
Experiment: one-hybrid fitness for binding NBS DNA (the Noc-binding site; scaled: cognate 1, non-cognate 0); higher = stronger binding
Conditions: with NBS DNA site
In short: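 Values were rescaled so that cognate is 1 and non-cognate is 0. Each is a fitness, the log change in a variant's read ratio to wild type from Illumina reads of plasmids before and after selection, with three replicate libraries pooled and variants under 10 reads dropped. Selection of the Caulobacter ParB libraries, four specificity codons randomised, used E. coli USO with a HIS3 reporter, site 19 bp from the promoter, on M9-minus-histidine with 0.1 mM IPTG and 5 mM 3-AT for 48 hours at 37°C.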

Variant	one-hybrid fitness for binding NBS DNA
SMDC	≤ 0.2
SRCW	≤ 0.2
CAPD	≤ 0.2
RCKA	0.423
FYKR	≤ 0.2
PGMG	≤ 0.2
NNNT	≤ 0.2
GKTC	≤ 0.2
RSGL	≤ 0.2
HWHE	≤ 0.2
NISV	≤ 0.2
QRYY	0.433
PNVA	≤ 0.2
LKQL	≤ 0.2
YIHA	≤ 0.2
YKAL	≤ 0.2
GPRG	≤ 0.2
SQNS	≤ 0.2
NSDS	≤ 0.2
RFWR	≤ 0.2
TRCI	≤ 0.2
AFFS	≤ 0.2
KFTC	≤ 0.2
RGGF	≤ 0.2

Variant	one-hybrid fitness for binding NBS DNA
QKWG	≤ 0.2
RVTV	≤ 0.2
CHCC	≤ 0.2
FRFV	≤ 0.2
YTPV	≤ 0.2
PMHE	≤ 0.2
QHKH	0.546
MDYS	≤ 0.2
KAGE	≤ 0.2
HKRC	≤ 0.2
INCR	≤ 0.2
VAML	≤ 0.2
ISMT	≤ 0.2
LLGL	≤ 0.2
SDVS	≤ 0.2
APWL	≤ 0.2
GSFT	≤ 0.2
PGQC	≤ 0.2
MGSM	≤ 0.2
LHLE	≤ 0.2
CAES	≤ 0.2
YSPF	≤ 0.2
RCHY	0.215
MPVT	≤ 0.2

Variant	one-hybrid fitness for binding NBS DNA
HVIK	≤ 0.2
KWPC	≤ 0.2
PMYC	≤ 0.2
VHLI	≤ 0.2
RTCA	0.222
PGST	≤ 0.2
GHSV	≤ 0.2
PGKA	≤ 0.2
IMHV	≤ 0.2
RVEN	≤ 0.2
YCPG	≤ 0.2
CKRG	≤ 0.2
RLIS	≤ 0.2
LRKQ	≤ 0.2
MHMC	≤ 0.2
YIQS	≤ 0.2
WVAN	≤ 0.2
PKIG	≤ 0.2
PSPD	≤ 0.2
NCGT	≤ 0.2
CGAM	≤ 0.2
RSGH	≤ 0.2
LYRN	≤ 0.2
YSQA	≤ 0.2

Variant	one-hybrid fitness for binding NBS DNA
DGRN	≤ 0.2
PTAV	≤ 0.2
YSSW	≤ 0.2
GLND	≤ 0.2
GHQS	≤ 0.2
HKNC	≤ 0.2
KYME	≤ 0.2
IKSC	≤ 0.2
VRVQ	≤ 0.2
EPFM	≤ 0.2
YPVY	≤ 0.2
YCDA	≤ 0.2
PITR	≤ 0.2
KPSN	≤ 0.2
TSGC	≤ 0.2
WTHG	≤ 0.2
PPVY	≤ 0.2
MYTW	≤ 0.2
LKAI	≤ 0.2
IDNT	≤ 0.2
LKPN	≤ 0.2
DQLG	≤ 0.2
GSSL	≤ 0.2
GMAR	≤ 0.2

Variant	one-hybrid fitness for binding NBS DNA
QQDI	≤ 0.2
SQSD	≤ 0.2
QFRC	≤ 0.2
GVPA	≤ 0.2
CPVW	≤ 0.2
NAQW	≤ 0.2
CCAY	≤ 0.2
SRPW	≤ 0.2
VNPP	≤ 0.2
QKLE	≤ 0.2
AIAH	≤ 0.2
APEF	≤ 0.2
QLQH	≤ 0.2
GCTK	≤ 0.2
PMML	≤ 0.2
EACF	≤ 0.2
PLPV	≤ 0.2
DYMS	≤ 0.2
WWEG	≤ 0.2
THSR	≤ 0.2
ERPF	≤ 0.2
KRIR	0.378
SYRC	≤ 0.2
MHNS	≤ 0.2

Variant	one-hybrid fitness for binding NBS DNA
KMMR	≤ 0.2
DEAM	≤ 0.2
PPWV	≤ 0.2
QNRN	≤ 0.2
HHAT	≤ 0.2
SGKW	≤ 0.2
QVTV	≤ 0.2
LAVP	≤ 0.2
MKHV	≤ 0.2
PKLA	≤ 0.2
KTHT	≤ 0.2
IQQG	≤ 0.2
HGSL	≤ 0.2
HILF	≤ 0.2
HQNG	≤ 0.2
SDRY	≤ 0.2
WPDR	≤ 0.2
KKGG	≤ 0.2
RRHC	0.363
NAEG	≤ 0.2
QPEF	≤ 0.2
FNSG	≤ 0.2
WLMG	≤ 0.2
FAGS	≤ 0.2

Variant	one-hybrid fitness for binding NBS DNA
KDTR	≤ 0.2
RRWN	0.222
SNQR	≤ 0.2
NNRG	≤ 0.2
NLVS	≤ 0.2
TAYY	≤ 0.2
DGGV	≤ 0.2
DVMT	≤ 0.2
APQF	≤ 0.2
QKTH	0.241
LMWR	≤ 0.2
WDMG	≤ 0.2
SKPL	≤ 0.2
CCNL	≤ 0.2
YYSS	≤ 0.2
EKQF	≤ 0.2
AYPN	≤ 0.2
QVQI	≤ 0.2
ATYV	≤ 0.2
LIYI	≤ 0.2
TQTK	≤ 0.2
SIMR	≤ 0.2
RCIF	≤ 0.2
NDRI	≤ 0.2

Variant	one-hybrid fitness for binding NBS DNA
RLQF	≤ 0.2
QCDT	0.369
QRRF	0.418
NSDT	≤ 0.2
DRRR	0.215
TNCK	≤ 0.2
LSNQ	≤ 0.2
LSTE	≤ 0.2
AYSI	≤ 0.2
ACKL	≤ 0.2
GRCF	≤ 0.2
SEAR	≤ 0.2
VNYT	≤ 0.2
GCWG	≤ 0.2
NCYS	≤ 0.2
YCIG	≤ 0.2
EPSR	≤ 0.2
AREW	≤ 0.2
DGQR	≤ 0.2
QRHD	0.294
FLTY	≤ 0.2
QTST	0.61
IYNC	≤ 0.2
ASET	≤ 0.2

Variant	one-hybrid fitness for binding NBS DNA
NINS	≤ 0.2
RFTV	≤ 0.2
RIRF	≤ 0.2
PWEK	≤ 0.2
SIAA	≤ 0.2
HMLI	≤ 0.2
ECPG	≤ 0.2
VFVV	≤ 0.2
CGTR	≤ 0.2
HEIA	≤ 0.2
RNFT	≤ 0.2
RPVF	≤ 0.2
SFAS	≤ 0.2
NMPL	≤ 0.2
GNGS	≤ 0.2
QSIA	≤ 0.2
AGIE	≤ 0.2
DGER	≤ 0.2
RIAI	≤ 0.2
RMLY	≤ 0.2
APRE	≤ 0.2
RQRC	0.307
EGGY	≤ 0.2
WAPL	≤ 0.2

Variant	one-hybrid fitness for binding NBS DNA
RYEG	≤ 0.2
KAKS	≤ 0.2
AVCT	≤ 0.2
GHQC	≤ 0.2
NVVW	≤ 0.2
AKKY	≤ 0.2
HCIR	≤ 0.2
GKFG	≤ 0.2
RTRH	0.536
RHIT	0.243
DFKC	≤ 0.2
PDSL	≤ 0.2
FRYT	≤ 0.2
WHPS	≤ 0.2
TLQS	≤ 0.2
HPKI	≤ 0.2
FESR	≤ 0.2
EWTR	≤ 0.2
TDTT	≤ 0.2
KFCG	≤ 0.2
RSAI	≤ 0.2
YMDG	≤ 0.2
DRTE	≤ 0.2
ISDC	≤ 0.2

Variant	one-hybrid fitness for binding NBS DNA
GERY	≤ 0.2
WPVG	≤ 0.2
YPRY	≤ 0.2
AKHG	≤ 0.2
GSLL	≤ 0.2
EEAD	≤ 0.2
VPSM	≤ 0.2
SIMC	≤ 0.2
ENMS	≤ 0.2
DIIN	≤ 0.2
ISHY	≤ 0.2
EFFS	≤ 0.2
PNLW	≤ 0.2
RGDM	≤ 0.2
SSWS	≤ 0.2
SMIS	≤ 0.2
VMHH	≤ 0.2
QAWD	≤ 0.2
RDHV	≤ 0.2
SCNF	≤ 0.2
SKSF	≤ 0.2
NHSP	≤ 0.2
PFQY	≤ 0.2
AGES	≤ 0.2

Variant	one-hybrid fitness for binding NBS DNA
MAGR	≤ 0.2
DNSL	≤ 0.2
AHNK	≤ 0.2
VSRC	≤ 0.2
EVQC	≤ 0.2
RFCK	≤ 0.2
GDLV	≤ 0.2
RGFC	≤ 0.2
YIHF	≤ 0.2
RKHW	≤ 0.2
TNRT	≤ 0.2
ELEM	≤ 0.2
QAHD	≤ 0.2
PDNT	≤ 0.2
GGLT	≤ 0.2
RLNS	0.493
PNYT	≤ 0.2
HAVV	≤ 0.2
SLMV	≤ 0.2
PSCE	≤ 0.2
VCHT	≤ 0.2
LSAP	≤ 0.2
ARSL	≤ 0.2
ENLA	≤ 0.2

Variant	one-hybrid fitness for binding NBS DNA
VCCT	≤ 0.2
KKYD	≤ 0.2
HWHG	≤ 0.2
TSAS	≤ 0.2
RFAI	≤ 0.2
MPSG	≤ 0.2
RERH	≤ 0.2
HLGC	≤ 0.2
RLMM	≤ 0.2
NMAF	≤ 0.2
MNKG	≤ 0.2
SAFW	≤ 0.2
CLMC	≤ 0.2
VCML	≤ 0.2
QRPR	0.543
WDKP	≤ 0.2
NVDD	≤ 0.2
LECT	≤ 0.2

From a collection of fitness landscapes (doi:10.1016/j.celrep.2020.107928)
